Assay results from PMC12136788.
Some of the results follow.

T1: UNK ZnF1-3 (human, UniProt Q9C0B0 31-174)
T1 sequence: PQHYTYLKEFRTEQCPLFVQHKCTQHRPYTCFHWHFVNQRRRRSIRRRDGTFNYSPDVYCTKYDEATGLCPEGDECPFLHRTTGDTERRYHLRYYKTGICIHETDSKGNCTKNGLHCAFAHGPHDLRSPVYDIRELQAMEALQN

B1: chr20:52831857:52831858:+_ENSG00000101132_ENST00000441080|hu_mus|motif|central (ssRNA)
RNA: GGGAGUUCUACAGUCCGACGAUCCAGCAUGAUGUCAUCACAGGCGUCCUCUAAGUUCUGGAGAUGUUUCUUCUUCACUUCGGUUUCCUCCUUUAGCUCUGUGAUUCGACUCGUAUUCCGAGCAAAUUUGUUUAUUUUUUGCUGCAACAGAGGAUUGAGCAUCA
B2: 91020442_91020996_3268_CDS_ENSG00000140575_ENST00000268182|human|control|control (ssRNA)
RNA: GGGAGUUCUACAGUCCGACGAUCCAGGGCAUUCUGGCCACGGGCACCACGGUUGAAACUUACAACCAUUUUAAUAACCGUAGGAUUUCCUGUCACAAUCUCUUGAAUCUGAUCUACCUUCGACUUGAUUUCCUCUUGGAGUGCCAACAGAGGAUUGAGCAUCA
B3: chr6:122779733:122779734:-_ENSG00000111897_ENST00000339697|hu_hu|motif|central (ssRNA)
RNA: GGGAGUUCUACAGUCCGACGAUCCAACAUUACACAAGCUACACAUACUCCAACAAGCAAGAAAAGUGCAUAGAUCAAUCGGGUUACAGUGGAGUUGUUUCCACUAGGACAGCAUCGGCAUAGCAAACACGGGGCACUUCCACACAACAGAGGAUUGAGCAUCA
B4: 88512733_88512853_1577_3pUTR_ENSMUSG00000034111_ENSMUST00000037418|mouse|control|control (ssRNA)
RNA: GGGAGUUCUACAGUCCGACGAUCCUUGCUAUGUGGCAGAAACACAGACUUGGUAAAGAGAAAGGAGGAAAGGUCUAACCAUCAGGAAUAAUAAUAUCCAUUCAAGGCAGUGAGGUCUCCCAGCCUGAGCUAGAGACUAAGAAGCAACAGAGGAUUGAGCAUCA
B5: chr1:39494447:39494448:+_ENSG00000168653_ENST00000372967|hu_mus|hu_hu_hu_mus_False|68_78 (ssRNA)
RNA: GGGAGUUCUACAGUCCGACGAUCGCACCGAGCGGCGUUCUUAUAGGGCUGUUCUGCACUCUGGAUUGUCAACCAUCGGUCCAGGCUGAUGCCCAGCUUUUUCUGUAUGUCAAGGAAAGGCAUGGCUCUGCAGUGCCCUUGUCACAACAGAGGAUUGAGCAUCA
B6: chr3:9412954:9412955:+_ENSG00000134077_ENST00000452837|hu_mus|hu_hu_hu_mus_False|28_78 (ssRNA)
RNA: GGGAGUUCUACAGUCCGACGAUCGGUUGAUAUCUCUUCUUUGAUGGCUGGAUUUUCAUAAUAAUCUAAGAUAUGUGAAUCUGAAGUGCUGCUGGCAUGCUUUUUCUUAACAUUUCUCUCAUCUGCUUUGUCUCCUUGUCCACACAACAGAGGAUUGAGCAUCA
B7: chr19:30113593:30113594:+_ENSMUSG00000024817_ENSMUST00000025739|mus_mus|motif|central (ssRNA)
RNA: GGGAGUUCUACAGUCCGACGAUCUUUAACCUGAGCAUCAUUCUGCUUAGAUGUGCUAGGAAGACUGGAGUCUGGACGAACGGGCAGCUGAAUUAUAUCAUUCAGUCCAACGUCGUAGUCAAAUAAAGUAUAUCCAUUUUCCAACAACAGAGGAUUGAGCAUCA
B8: 179965723_179965843_909_3pUTR_ENSG00000135837_ENST00000367607|human|control|control (ssRNA)
RNA: GGGAGUUCUACAGUCCGACGAUCGAGCUCUCAAAAUCACAGCUCCGUAUAUUCCGUUCUUCUCGACUGCCUAUCAUCCAGUUACCGCUCUCAGUCUUUUCUUCAUUAACAUCUACACAGUAUACGUGCUUUGAUUCCAGAUGGCAACAGAGGAUUGAGCAUCA
B9: chr3:108394432:108394433:+_ENSMUSG00000040389_ENSMUST00000051145|mus_mus|motif|central (ssRNA)
RNA: GGGAGUUCUACAGUCCGACGAUCAGGAAAACGCGGAGGAGAGGCCGGCGGCCAGAGCCCCGAGACAGCCAAUUCCAGUCGGAGGCGCGAGCGCGAGGGCGGCGGUCUGGGCUAAGCAGCCCGCACGUCAAUCCAUCAGCUCGUCAACAGAGGAUUGAGCAUCA
B10: chr1:160302343:160302344:-_ENSG00000122218_ENST00000241704|hu_mus|FALSE|FALSE (ssRNA)
RNA: GGGAGUUCUACAGUCCGACGAUCCAGGUCUUCAGAGGGGUGGAACUGAGCACACAUUACAUAAUGGUUGUGCCCCGUUAACACACAGACACAGGUUCUAGACUGCCAGUUCCACACCCGAAUGGUCUGAUCAUCUGAGGCGCUCAACAGAGGAUUGAGCAUCA
B11: chr12:88580095:88580096:-_ENSMUSG00000021038_ENSMUST00000072744|mus_mus|FALSE|FALSE (ssRNA)
RNA: GGGAGUUCUACAGUCCGACGAUCACGUGCUGAAGCAGAUGGCUCACCACCUGGACAGUGUGCAGGUGUCAGAGGGACCCUAUAUCCCUCACACGUCCCUACACAAAGUUGACAGGGACAGUGCCGUGACAGCAGGUAGAUACUCAACAGAGGAUUGAGCAUCA
B12: chr2:237995794:237995795:+_ENSG00000198612_ENST00000392008|hu_hu|motif|central (ssRNA)
RNA: GGGAGUUCUACAGUCCGACGAUCGUAUUCUUUUCCAAAGAUAUCUUGCAUUAUUCAUGUCAUUAUGGAGCAAAUAUAAAGCGGGAAGCUGACCAUACACUGGGGGUGUAGCAAUUCCUCCAGGGGCUAUUAUAAGAAACAAAUCAACAGAGGAUUGAGCAUCA
B13: chr18:77733610:77733611:-_ENSG00000141759_ENST00000592957|hu_mus|motif|central (ssRNA)
RNA: GGGAGUUCUACAGUCCGACGAUCCUCAUCUCACGGAUCCUCCAGCUCUACAGCAAUGUCGGGCUGCAGGGCCUUUCCAGAGGCGGCGAGAGCAGAGUAUUUCUAUGUGGAAGAGGCUCUCAGUGUCCUUUGCACAGCCUGAGGCAACAGAGGAUUGAGCAUCA
B14: chr17:62495851:62495852:-_ENSG00000108654_ENST00000581693|hu_hu|FALSE|FALSE (ssRNA)
RNA: GGGAGUUCUACAGUCCGACGAUCUCACUGUACAUUUACUUUUGUGAAAACACUGCCUGCAUUUUCUAGUACAAAAAAAACCUAAAAAUUGUUUCAGGAAUGUAGAGAAAUAUCCAACUUAAAUAGCGAAAAAGUGCACCAUAACAACAGAGGAUUGAGCAUCA
B15: 52781405_52782389_3119_CDS_ENSMUSG00000035726_ENSMUST00000046709|mouse|control|control (ssRNA)
RNA: GGGAGUUCUACAGUCCGACGAUCGCCACGGCCUGAACUAUGUACAGAUGCCUUCCUCUUCCGGCUCAUACUUCGGCUCUGUUCUUCUUCCUCCUCAUAACGGCUUUCCCGGUCCGCUUUUCGUGCUUCUUCUUCUAGCUCAUCCAACAGAGGAUUGAGCAUCA
B16: chr7:44664009:44664010:+_ENSG00000105953_ENST00000222673|hu_mus|FALSE|FALSE (ssRNA)
RNA: GGGAGUUCUACAGUCCGACGAUCAGAAUAGCACCGAAUCUGUUGAAACGUCCUAAUUGCUGCUGGUUUGUUUUGUGAAAAUGUCUUAACAGUCUGGGAGGCUGUCAAUGGCCUUAACUUAGCAGCACAAGUCCUUAAAUGAAACAACAGAGGAUUGAGCAUCA
B17: chr2:179515052:179515053:+_ENSMUSG00000000305_ENSMUST00000000314|mus_hu|mus_mus_mus_hu_False|78_88 (ssRNA)
RNA: GGGAGUUCUACAGUCCGACGAUCGCUGUCCCAUGCAGUCACCGUGAAGGCCACCUGCUCUGAGGGGACCUGCAGCUCCCGGGUGGCGAAGACUGUCCCAUCUGCCCCAACUUUGAAGUCCAUGCUGUUGGUCUCAUAUUGUGUCAACAGAGGAUUGAGCAUCA
B18: chr7:75932113:75932114:+_ENSG00000106211_ENST00000248553|hu_hu|hu_hu_hu_mus_False|88_108 (ssRNA)
RNA: GGGAGUUCUACAGUCCGACGAUCCUGCGACCACUCCUCGGGCAACCGGGGCAGCCCGAAAGCUUGAUCGAAGAGGCGGCUGUGUGCAGGGUACCAGUCCCGGAAUGGUUCCCAGCUCGGGCUCCGCAGCAGCGAGAAGGGCACCAACAGAGGAUUGAGCAUCA
B19: chr7:140404665:140404666:+_ENSG00000090266_ENST00000247866|hu_hu|hu_hu_hu_mus_False|8_78 (ssRNA)
RNA: GGGAGUUCUACAGUCCGACGAUCUGCUCCUACUCGUCCAGAGAGUUUACAGUGUCAGUCUUCAUCAUCAGGAGGGAUUCCCAGUUCUUCAUCUGUCCACUGUGAAGGAUCUGGAUAUGAAAAGUGACCCAGCACCUCAUCCGACAACAGAGGAUUGAGCAUCA
B20: chr6:40197388:40197389:+_ENSMUSG00000057716_ENSMUST00000061740|mus_mus|mus_mus_mus_hu_False|38_98 (ssRNA)
RNA: GGGAGUUCUACAGUCCGACGAUCGAGACACUGGGGUGGAUGGCACCCACCUCUGUUUGGGUGCUAGCCACUAAGACUGUUAUUUUGGGAUUCAUGGCCUUGAAGAUCAAGAGGGAAAGGAAGAGGAUGGAAAGAGUCAAGAGUCAACAGAGGAUUGAGCAUCA
B21: chr6:106732989:106732990:-_ENSMUSG00000005362_ENSMUST00000049675|mus_hu|motif|central (ssRNA)
RNA: GGGAGUUCUACAGUCCGACGAUCACUGCCAAUUUUAAGGAGCUGAAUUCUCAAUACAUCAUCAAUAGGAAGACAAGCAGCGGCUCUGUAAGAAAAAUCUAUUGGAUUUGAAGGAAGAGAAUCAUCUUUUAGAUUUUCAUCCCACAACAGAGGAUUGAGCAUCA
B22: 16573988_16574108_998_CDS_ENSMUSG00000070808_ENSMUST00000094821|mouse|control|control (ssRNA)
RNA: GGGAGUUCUACAGUCCGACGAUCGGCUGCUGCAGUGGCAGCCCCUGUCCCGGCAAACACCGAGUUCCCGUUGAGUGUGGUGGUCACUGCGGCUGGAAGAUUUUUCUGGAUGACCAGGCCGGCUCCCUGGGGGGACACGCCGGCCAACAGAGGAUUGAGCAUCA

Molecular target: T1, UNK ZnF1-3
Experiment: nsRBNS (natural sequence RNA bind-n-seq); RBNS binding buffer (assumed for nsRBNS): 25 mM Tris pH 7.5, 150 mM KCl, 3 mM MgCl2, 0.01% Triton X-100, 500 ug/ml BSA, 20 U/ml SUPERase-In, 4 C; UNK is unkempt and MSI1 is Musashi-1; names of the RNAs are library labels; protein concentration not given here; high values mean tight binding

Row | Binder | binding signal [enrichment R]
1 | B1 | 0.327
2 | B2 | 1.14
3 | B3 | 1.69
4 | B4 | 1.62
5 | B5 | 0.618
6 | B6 | 0.567
7 | B7 | 1.94
8 | B8 | 0.846
9 | B9 | 0.858
10 | B10 | 1.06
11 | B11 | 0.592
12 | B12 | 1.4
13 | B13 | 0.838
14 | B14 | 1.07
15 | B15 | 0.467
16 | B16 | 1.1
17 | B17 | 0.859
18 | B18 | 1.39
19 | B19 | 1.35
20 | B20 | 1.45
21 | B21 | 1.28
22 | B22 | 0.863
